This is one part of the list. Each Rep nickase domain was tested in vitro on the same pool of single strands (3 µM enzyme, 1 h, 37 °C); shown is the middle of each 90-letter strand. Uncut reads are compared with the no-enzyme pool on a log2 scale; the lower, the more was cut; hits are not called. Counts are relative to all reads; values above 0 arise when much of the pool is cut.
Key:
Experiment in all cases: uncleaved DNA left, log2 of reads against the no-enzyme library (log2 ratio); higher = less cleavage (more negative = more Rep cleavage of the k-mer); sequences stand for … in CTCGTCCG…ACCGGAGA
[1] = system: T1, Rep nickase domain of Muscovy duck circovirus
T1 sequence (residues 1-111 of Rep, tag left off): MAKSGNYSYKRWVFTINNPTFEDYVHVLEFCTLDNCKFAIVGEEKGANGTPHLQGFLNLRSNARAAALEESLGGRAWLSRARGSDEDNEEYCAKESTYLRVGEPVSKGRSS
Experimental: (§1)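 A pool of 90-nt single-stranded DNAs with seven random bases just before the constant AC of the nick site (name = the seven bases) was cut by 3 µM recombinant His6-SUMO-tagged Rep nickase domain (300 nM DNA, 50 mM HEPES pH 8.0, 50 mM NaCl, 1 mM MnCl2, 1 h, 37 °C, three replicates). Uncut DNA was amplified and sequenced.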

[2] = system: T2, Rep nickase domain of banana bunchy top virus
T2 sequence (residues 1-94 of Rep, tag left off): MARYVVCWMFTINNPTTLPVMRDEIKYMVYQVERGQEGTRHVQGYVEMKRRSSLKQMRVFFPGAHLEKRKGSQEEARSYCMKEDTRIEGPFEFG
Experimental: as §1

[3] = system: T3, Rep nickase domain of cabbage leaf curl virus
T3 sequence (residues 1-116 of Rep, tag left off): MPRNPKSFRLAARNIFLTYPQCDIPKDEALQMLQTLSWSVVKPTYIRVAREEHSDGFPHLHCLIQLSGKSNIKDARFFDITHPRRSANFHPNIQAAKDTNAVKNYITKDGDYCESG
Experimental: as §1

[4] = system: T4, Rep nickase domain of chickpea chlorotic dwarf virus
T4 sequence (residues 1-124 of Rep, tag left off): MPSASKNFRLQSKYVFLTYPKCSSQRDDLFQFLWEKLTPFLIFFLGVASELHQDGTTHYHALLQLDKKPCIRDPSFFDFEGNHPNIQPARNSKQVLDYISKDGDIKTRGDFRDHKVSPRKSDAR
Experimental: as §1

[5] = system: T5, Rep nickase domain of faba bean necrotic yellows virus
T5 sequence (residues 1-98 of Rep, tag left off): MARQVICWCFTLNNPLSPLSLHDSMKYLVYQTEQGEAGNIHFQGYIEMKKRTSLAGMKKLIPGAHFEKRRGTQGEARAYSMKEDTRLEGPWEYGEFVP
Experimental: as §1

[6] = system: T6, Rep nickase domain of maize striate mosaic virus
T6 sequence (residues 1-117 of Rep, tag left off): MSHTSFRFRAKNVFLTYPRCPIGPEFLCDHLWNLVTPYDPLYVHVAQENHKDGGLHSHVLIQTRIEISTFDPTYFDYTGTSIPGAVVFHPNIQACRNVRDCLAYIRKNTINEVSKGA
Experimental: as §1

[7] = system: T7, Rep nickase domain of porcine circovirus 2
T7 sequence (residues 2-116 of Rep, tag left off): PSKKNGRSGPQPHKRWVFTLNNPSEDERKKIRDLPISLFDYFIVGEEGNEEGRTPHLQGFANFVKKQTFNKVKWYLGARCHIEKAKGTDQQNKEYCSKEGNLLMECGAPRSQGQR
Experimental: as §1

[8] = system: T8, Rep nickase domain of tomato golden mosaic virus
T8 sequence (residues 1-124 of Rep, tag left off): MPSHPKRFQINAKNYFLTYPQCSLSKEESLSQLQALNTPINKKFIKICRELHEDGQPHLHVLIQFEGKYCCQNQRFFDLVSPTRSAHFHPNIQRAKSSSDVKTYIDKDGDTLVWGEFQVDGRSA
Experimental: as §1

[9] = system: T9, Rep nickase domain of tomato yellow leaf curl virus
T9 sequence (residues 1-136 of Rep, tag left off): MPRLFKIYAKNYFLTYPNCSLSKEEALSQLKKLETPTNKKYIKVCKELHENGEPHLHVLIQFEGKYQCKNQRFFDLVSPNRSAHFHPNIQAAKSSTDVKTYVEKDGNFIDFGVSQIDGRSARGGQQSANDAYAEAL
Experimental: as §1

[10] = system: T10, Rep nickase domain of wheat dwarf virus
T10 sequence (residues 1-137 of Rep, tag left off): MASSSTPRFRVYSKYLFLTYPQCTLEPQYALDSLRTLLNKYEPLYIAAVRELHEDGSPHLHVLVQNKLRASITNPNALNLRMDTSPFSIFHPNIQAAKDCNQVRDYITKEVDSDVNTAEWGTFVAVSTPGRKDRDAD
Experimental: as §1

| Sequence | uncleaved DNA left (log2) [1] | uncleaved DNA left (log2) [2] | uncleaved DNA left (log2) [3] | uncleaved DNA left (log2) [4] | uncleaved DNA left (log2) [5] | uncleaved DNA left (log2) [6] | uncleaved DNA left (log2) [7] | uncleaved DNA left (log2) [8] | uncleaved DNA left (log2) [9] | uncleaved DNA left (log2) [10] |
| --- | --- | --- | --- | --- | --- | --- | --- | --- | --- | --- |
| GCTGACA | 0.0469 | 0.0543 | 0.052 | 0.511 | -0.0147 | 0.784 | 0.0685 | 0.00573 | 0.019 | 0.0538 |
| TCGATAG | 0.0971 | -0.0122 | -0.164 | -0.016 | 0.0259 | -0.619 | 0.236 | 0.108 | 0.0307 | -0.0193 |
| GTCCTAC | -0.0989 | -0.102 | 0.165 | 0.388 | -0.235 | 1.48 | -0.289 | -0.136 | -0.156 | -0.0956 |
| TACTATT | -3.71 | -4.45 | -3.61 | -3.67 | -3.54 | -2.99 | -4.54 | -3.65 | -0.322 | -3.51 |
| GTCAGTT | -0.0593 | -0.00996 | 0.227 | 0.644 | -0.0471 | 1.38 | -0.0214 | -0.0125 | 0.0618 | -0.0269 |
| GCCTGCA | 0.0622 | 0.0314 | -0.267 | -0.143 | 0.01 | -0.646 | 0.0506 | 0.0962 | -0.0631 | -0.0285 |
| TCATCGC | -0.114 | -0.159 | -0.695 | -0.88 | -0.112 | -1.16 | 0.052 | -0.208 | -0.0556 | -0.194 |
| AGGTGTG | -0.00344 | -0.188 | -0.581 | -0.493 | -0.0303 | -0.947 | 0.109 | -0.000581 | 0.0581 | -0.148 |
| GGCTTTA | -0.0215 | -0.00987 | 0.346 | 0.75 | -0.0529 | 1.61 | -0.012 | -0.0963 | 0.0904 | 0.0254 |
| GCTATAT | 0.112 | -0.042 | 0.254 | 0.27 | 0.0926 | 0.321 | -0.122 | 0.136 | 0.048 | 0.112 |
| TGCCTCA | -0.036 | -0.103 | 0.0828 | -0.441 | -0.0407 | 0.149 | -0.105 | 0.000875 | -0.0224 | -0.00204 |
| AGATGTG | -0.0304 | -0.123 | -0.756 | -0.285 | 0.0659 | -0.988 | 0.0719 | -0.02 | -0.053 | -0.187 |
| GTCTGCC | 0.0307 | 0.0866 | 0.172 | 0.58 | 0.0263 | 0.678 | 0.0606 | 0.0098 | 0.068 | -0.0919 |
| TAAAGTA | 0.0219 | -0.0489 | -2.13 | -2.69 | -0.0195 | -0.917 | -0.204 | -0.229 | -0.0493 | -1.72 |
| GAATTTG | 0.00554 | -0.0871 | -0.504 | -0.622 | -0.0398 | -0.952 | 0.042 | -0.0457 | 0.00999 | -0.0635 |
| TGTTAAG | -0.00806 | 0.0723 | -0.714 | -0.489 | 0.0644 | -1.1 | 0.16 | -0.0115 | 0.147 | -0.00783 |
| AAAACGC | 0.0527 | -0.0338 | -0.255 | -0.625 | 0.0463 | -1.06 | 0.13 | 0.0319 | -0.0535 | -0.122 |
| ACGTCAC | -0.0898 | -0.062 | -0.238 | -0.298 | -0.0918 | -0.773 | 0.00696 | -0.0355 | -0.182 | -0.0818 |
| AAGTATC | 0.17 | 0.0419 | 0.0498 | -0.143 | -0.586 | 0.00139 | -3.06 | 0.0653 | -0.0811 | 0.134 |
| CAACAGG | -0.088 | -0.0551 | -0.138 | 0.196 | -0.112 | -0.444 | -0.0345 | -0.0678 | 0.0253 | -0.126 |
| ACGCAAA | -0.152 | 0.00782 | -0.103 | -0.175 | -0.135 | -0.717 | 0.132 | 0.00546 | -0.207 | -0.0762 |
| GCATCGC | 0.0455 | 0.0705 | -0.432 | -0.381 | 0.129 | -0.75 | 0.263 | 0.117 | 0.172 | -0.0435 |
| TAAACCC | -0.344 | -0.133 | -2.65 | -3.01 | -0.0226 | -0.739 | -0.848 | -0.432 | -0.122 | -1.73 |
| AAGACAC | 0.00164 | 0.00278 | 0.169 | 0.28 | -0.143 | 0.293 | -0.071 | -0.000669 | -0.0734 | 0.132 |
| GATTGCG | -0.186 | -0.0604 | 0.489 | 1.2 | -0.0553 | 1.92 | -0.0314 | -0.167 | -0.238 | -0.0329 |
| CTGTTCA | -0.125 | -0.0147 | -0.0888 | -1.06 | -0.209 | -0.581 | -0.206 | -0.144 | 0.0222 | -0.00785 |
| ATGCCTC | -0.0726 | -0.272 | -0.0599 | 0.188 | -0.14 | 0.456 | -0.0861 | -0.288 | -0.249 | -0.12 |
| GACGGCG | 0.0819 | -0.0384 | -0.623 | 0.247 | 0.125 | -0.696 | 0.0524 | -0.0507 | 0.00817 | -0.179 |
| ACCCTGT | 0.0981 | -0.0609 | -0.266 | -0.625 | -0.00129 | -0.638 | -0.0647 | 0.185 | -0.0312 | -0.0401 |
